Out of some 310,000 compounds screened, about 14,000 (4.5%) showed an effect of 50% or more. Effects have a minus sign here. Some of the results follow.
Each compound was assayed against human ether-à-go-go-related gene (hERG) potassium channel (human, UniProt Q12809) (assay: primary screen, population patch clamp on CHO cells stably expressing hERG).
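Further: peak tail current of the secondary pulse compared with the same well before compound.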

human ether-à-go-go-related gene (hERG) potassium channel, sequence (Q12809 whole entry, looked up): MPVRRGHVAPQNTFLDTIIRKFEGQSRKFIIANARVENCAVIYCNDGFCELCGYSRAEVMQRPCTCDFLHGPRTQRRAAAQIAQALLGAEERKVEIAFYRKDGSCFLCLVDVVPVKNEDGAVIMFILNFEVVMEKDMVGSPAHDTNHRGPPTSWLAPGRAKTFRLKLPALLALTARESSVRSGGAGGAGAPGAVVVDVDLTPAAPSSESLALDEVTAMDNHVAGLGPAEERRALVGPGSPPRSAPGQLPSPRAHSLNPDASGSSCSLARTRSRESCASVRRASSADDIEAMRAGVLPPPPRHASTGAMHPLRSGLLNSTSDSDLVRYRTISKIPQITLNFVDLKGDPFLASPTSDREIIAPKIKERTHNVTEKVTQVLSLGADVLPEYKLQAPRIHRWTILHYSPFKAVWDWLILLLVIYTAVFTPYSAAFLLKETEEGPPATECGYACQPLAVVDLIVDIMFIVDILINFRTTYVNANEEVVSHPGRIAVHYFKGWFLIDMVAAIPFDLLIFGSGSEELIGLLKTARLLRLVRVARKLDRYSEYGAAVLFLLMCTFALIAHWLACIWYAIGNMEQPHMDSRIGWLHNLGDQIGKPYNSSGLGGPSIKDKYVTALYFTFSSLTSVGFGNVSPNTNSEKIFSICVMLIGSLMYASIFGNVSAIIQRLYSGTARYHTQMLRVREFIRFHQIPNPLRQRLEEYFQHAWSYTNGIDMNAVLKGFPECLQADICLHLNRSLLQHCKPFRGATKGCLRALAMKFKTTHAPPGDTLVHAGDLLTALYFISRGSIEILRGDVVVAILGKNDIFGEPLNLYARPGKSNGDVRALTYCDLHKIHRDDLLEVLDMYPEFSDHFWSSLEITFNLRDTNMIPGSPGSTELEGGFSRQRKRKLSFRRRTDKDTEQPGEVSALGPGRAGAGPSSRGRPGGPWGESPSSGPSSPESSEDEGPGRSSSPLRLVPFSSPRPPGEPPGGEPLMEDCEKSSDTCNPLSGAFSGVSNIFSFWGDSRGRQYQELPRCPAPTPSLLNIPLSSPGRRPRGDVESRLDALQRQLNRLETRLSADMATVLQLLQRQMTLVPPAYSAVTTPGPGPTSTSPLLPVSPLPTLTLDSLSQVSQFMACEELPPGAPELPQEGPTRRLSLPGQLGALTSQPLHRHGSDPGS

Row | Structure (SMILES) | hERG current change (%, negative = inhibition) at 10uM [%]
1 | CCC(Cc1ccccc1)NC(=O)CCc1ccccc1 (stereo not shown) | 13.5
2 | CCNc1ccccc1C(=O)O | 7.63
3 | CC(C)N(CCNC(=O)c1ccc(CS(=O)(=O)c2c(Cl)cccc2Cl)o1)Cc1ccccc1 | -70.6
4 | Cc1nn(CC(=O)NCCCN2CCN(C)CC2)c(=O)c2cc(-c3ccccc3)nn12 | 0.586
5 | C/C=C/C=C\C(=O)Nc1cccc(C2=NOC3(C2)C[C@H](C(N)=O)N(C(=O)CC#N)C3)c1 (stereo partly shown) | 3.77
6 | COc1ccc(/C=C/C(=O)Nc2ccc3c(c2)CCC3)cc1OC | 14.1
7 | CCOc1ccc(C(=O)NC(=S)NCCCN2CCOCC2)cc1 | -50.1
8 | S=c1[nH]c2ccccc2c2ccccc12 | 21.1
9 | CN(C)CCNC(=O)c1ccccc1 | 1.62
10 | Cc1ccc(CNC(=O)C2CCN(S(=O)(=O)c3cccs3)CC2)cc1 | 13.2
11 | CCOc1ccc(Nc2cc(C)nc3c(C)cccc23)cc1 | -45.6
12 | COC(=O)C1=C(O)/C(=C\c2ccc(OCC(=O)Nc3ccccc3)cc2)N=C1C | 5.46
13 | COc1ccc(OC)c(CN2CCCC(C(=O)c3sccc3C)C2)c1 (stereo not shown) | -63.9
14 | Cc1c(C(=O)OCC(=O)N(C)CC(=O)Nc2ccc(F)cc2)oc2ccccc12 | 14.3
15 | c1ccc(Cn2nnc3c(N4CCc5ccccc5C4)ncnc32)cc1 | -21.5
16 | CCOC(=O)C(NC(C)=O)(Nc1ccc(S(=O)(=O)Nc2cc(C)nc(C)n2)cc1)C(F)(F)F (stereo not shown) | 9.88
17 | CSc1ccc(C(=O)C2CCCN(C(=O)CCc3cnn(C)c3)C2)cc1 (stereo not shown) | -13.3
18 | O=C(NC(=S)Nc1c(Cl)ccc2nsnc12)c1ccco1 | 25.8
19 | CCC(C)NC(=O)CSc1nc2ccc(N3CCOCC3)cc2c(=O)n1CCc1ccccc1 (stereo not shown) | 3.14
20 | Cc1ccccc1OCc1nnc(SCC(=O)O)n1-c1cccc(Cl)c1 | 5.63
21 | CCCc1cc(=O)oc2cc(C)cc(OC(C)C(=O)NCC3CCC(C(=O)O)CC3)c12 (stereo not shown) | 6.11
22 | COc1cccc(S(=O)(=O)NCc2ccc(C(=O)NCC3CCCO3)cc2)c1 (stereo not shown) | -5.79

Row | Structure (SMILES) | hERG current change (%, negative = inhibition) at 10uM [%]
23 | CC(=O)Nc1cccc(O)c1 | 21.7
24 | O=C(COc1ccc(S(=O)(=O)Nc2cccc(C(F)(F)F)c2)cc1)N1CCOCC1 | 2.47
25 | Cc1ccc(CN(C)C(=O)c2cc(COc3ccc(F)cc3Cl)on2)o1 | -22.9
26 | N#C/C(=C/c1cn(-c2ccccc2)nc1-c1cccc(S(=O)(=O)N2CCOCC2)c1)C(=O)NCc1ccco1 | -8.53
27 | C/C(=N\NC(=O)c1c([N+](=O)[O-])c(C)nn1C)c1ccc(NC(=O)c2ccc(C)o2)cc1 | 17
28 | CC#CCN1c2ccccc2[C@]23C[C@@H](C(=O)OC)N(C(=O)c4ccc(Br)cc4)C2=NC(C(=O)OC)=C(C(=O)OC)[C@H]13 | 6.76
29 | CCc1ccc(NC(=O)CSc2n[nH]c(C)c2[N+](=O)[O-])cc1 | 5.31
30 | O=C(N/N=C/c1ccc([N+](=O)[O-])o1)c1cc(-c2ccc(-c3ccccc3)cc2)nc2ccccc12 | 17.7
31 | COc1ccc(C(=O)N2CCCC(N3CCN(c4ccccc4F)CC3)C2)c(OC)n1 (stereo not shown) | 0.587
32 | Cc1ccc(Nc2nc3nonc3[nH]c2=O)cc1C | 15.9
33 | CC(C)Nc1nnc(SCC(=O)Nc2sccc2C#N)s1 | -10.3
34 | CCOP(=S)(OCC)SCOC(=O)NCC(=O)OC | 13.1
35 | Cc1ccccc1-c1nc(CS(=O)(=O)CC(=O)NCc2ccco2)c(C)o1 | -21.7
36 | CC(=O)Nc1ccc(-c2sc(Nc3cccc4ccccc34)n[n+]2-c2ccccc2)cc1.[Cl-] | -1.21
37 | O=c1[nH]c(=O)n(C2CCCCC2)c(O)c1C1NCCc2ccccc21 (stereo not shown) | 14.5
38 | CN(C)S(=O)(=O)c1ccc(C(=O)NCCc2ccco2)cc1 | 4.04
39 | COc1ccc(OC)c(S(=O)(=O)N2CCC(C(=O)Nc3cc(C)ccc3C)CC2)c1 | 8.62
40 | COc1ccc(C(=O)n2c(N)nc3ccccc32)cc1OC.Cl | -2.37
41 | FC(F)(F)c1ccccc1NC(=S)N1CCN(Cc2ccc3c(c2)OCO3)CC1 | -36.5
42 | O=C(NCCc1ccc(Cl)cc1)Nc1cccc(Cl)c1 | 0.363
43 | CN1CCN(c2ccc(C(=O)c3ccc(Br)cc3)cc2[N+](=O)[O-])CC1 | -72.1
